In a compilation of properties of binary mixtures (doi:10.1016/j.molliq.2016.05.033):
The densities may have been worked out from excess volumes.

Assay: xn = mol fraction of the nth substance listed
Conditions: 101 kPa

CNc1ccccc1 + CCCC[n+]1ccn(C)c1.F[B-](F)(F)F
mass density [kg/m3]
Conditions | x1 = 0.0974 | x1 = 0.2093 | x1 = 0.2979 | x1 = 0.3968 | x1 = 0.5009 | x1 = 0.592 | x1 = 0.697 | x1 = 0.7972 | x1 = 0.8999 | x1 = 1
293.15 K | 1190.4 | – | – | 1146.2 | – | 1107.1 | 1083.9 | 1056.2 | 1027.9 | 986.5
303.15 K | 1183.3 | – | – | 1138.7 | 1119.8 | 1099.4 | 1076.1 | 1048.3 | 1020 | –
313.15 K | – | 1162.8 | 1148.4 | 1131.2 | – | 1091.8 | 1068.3 | 1040.4 | 1011.9 | 970.3
323.15 K | 1168.9 | 1155.6 | 1141.1 | 1123.8 | 1104.6 | – | – | 1032.5 | – | 962.1

CCCC[n+]1ccn(C)c1.F[B-](F)(F)F + CNc1ccccc1
x2 = 0
Conditions | mass density [kg/m3]
293.15 K | 1203.6
303.15 K | 1195.2
313.15 K | 1188
323.15 K | 1181
